Source: publication doi:10.1101/2025.11.14.688473
These are yes or no findings as the source states them, for the method shown. Some binding calls cover weakened binding; strength is not graded here. Where a sequence is shown, tags or fusion partners need not be part of it.

Target: T1, BD-Atg9 (S. cerevisiae) (UniProt Q12142)
T1 sequence: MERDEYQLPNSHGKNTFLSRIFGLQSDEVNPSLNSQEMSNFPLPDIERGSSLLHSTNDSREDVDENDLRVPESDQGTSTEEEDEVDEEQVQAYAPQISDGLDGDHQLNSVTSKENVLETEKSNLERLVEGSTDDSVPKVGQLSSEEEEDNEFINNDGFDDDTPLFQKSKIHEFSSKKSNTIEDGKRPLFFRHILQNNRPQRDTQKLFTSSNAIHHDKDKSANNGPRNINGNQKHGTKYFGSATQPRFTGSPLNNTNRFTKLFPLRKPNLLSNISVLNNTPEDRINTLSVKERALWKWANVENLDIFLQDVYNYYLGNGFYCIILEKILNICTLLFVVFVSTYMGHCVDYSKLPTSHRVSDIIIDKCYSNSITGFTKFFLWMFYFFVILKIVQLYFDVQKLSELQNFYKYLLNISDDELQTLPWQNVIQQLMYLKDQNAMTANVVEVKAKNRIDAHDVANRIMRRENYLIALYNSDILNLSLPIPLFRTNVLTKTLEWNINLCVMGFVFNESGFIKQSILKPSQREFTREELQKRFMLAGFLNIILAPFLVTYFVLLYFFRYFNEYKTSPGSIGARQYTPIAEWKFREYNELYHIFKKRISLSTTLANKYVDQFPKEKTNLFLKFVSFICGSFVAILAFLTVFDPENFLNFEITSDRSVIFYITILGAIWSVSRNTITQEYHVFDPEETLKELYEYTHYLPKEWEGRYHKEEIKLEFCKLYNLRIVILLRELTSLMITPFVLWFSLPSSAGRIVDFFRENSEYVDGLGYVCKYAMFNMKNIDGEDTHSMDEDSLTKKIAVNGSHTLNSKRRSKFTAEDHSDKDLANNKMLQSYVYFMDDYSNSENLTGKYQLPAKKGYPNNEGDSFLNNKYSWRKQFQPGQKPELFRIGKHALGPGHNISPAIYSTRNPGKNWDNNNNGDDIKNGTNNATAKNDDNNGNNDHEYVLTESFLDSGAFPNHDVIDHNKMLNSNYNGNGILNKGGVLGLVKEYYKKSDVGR
Experiment: two-hybrid; BD-ATG9 and AD-ATG11 or mutants in multiple-knockout yeast YCY149 (lacking 25 ATG genes); growth on SMD -ura -leu -his with 1.5 mM 3-amino-triazol, 4-5 days at 30°C

Binder | binding
AD-atg11 YDLL (protein, UniProt Q12527 1-1178) MADADEYSTAPTQQEITPLQTTATIINAISGECITTNVDFFVSLDKFKQFIARKWKIPPDQLLILLPYGNKLKPSMFKELLINRSFTLNDFYVYDRRLFSLVSKPTPTNLLTSKDSNPMNSPNSNDLTETLEYLIKNSHISQYQGSDTIMIKPMPSPLEDADVDLSRLNYHSVTSLLTTNLGWLSALEIDVHYFKSLIPDIIAHIKRIFDGLTVCSQYLKLYCFDVESLYNSNVQFLNQLVDNGMTSKWEKCFNDTLSKLTALEGDSLQKFINIESLLENEKSVKILNHSINGKLNKIKREIDENASFRDIITVNIDRLRQMFTPNESKFELEDQMAESFEVLVSEMRTRSRNVLDKEEEEFNSQEFLKSMNVMLEKDKKESVKTLFTISQALYSQIGELIDLKKSLQKHAVAILGNIAFTQMEILGIKRLLLNECNKDLELYKKYEVEFAQVEDLPLIYGLYLIEKARRLSWFQQILSFISNFNQDLELFKQNELRTRNKWVKNFGSIATVFCEAALSSSDFKRANEYHSHTSPPNEDEEDENENSIANYRQDLVKVSQAIDNYMTQIKETDVSEPIIDLLSKTLFETKRFHIIYSNFKNNNNNSSNGNSISPEGSIALKSDDVVKGYKTRIKKLESLLHEFQYSDIGHWPQGVLNTHLKPFRGSATSINKKKFLGASVLLEPANISEVNIDSVSQANNHQIQELESNVDDLLHQLQLLKEENNRKSMQISEMGKKISDLEVEKTAYRETLTNLNQELARLTNEEQSHRTEIFTLNASFKKQLNDIISQDNEKIEKLTGDYDDVSKSRERLQMDLDESNKKHEQEVNLLKADIERLGKQIVTSEKSYAETNSSSMEKGEKFETIPLAEDPGRENQISAYTQTLQDRIFDIISTNIFILENIGLLLTFDNNNNIQIRRVKGLKKGTAQSNILDESTQMLDAHDNSLIKSPVFQKLKDEYELIKSVANGSEKDTQQSIFLGNITQLYDNKLYEVAVIRRFKDIETLAKKLTKENKIKRTLLERFQREKVTLRNFQIGDLALFLPTRENVNSVGSMSSSTSSLSSSFSSVDLSTPPPLDAMSIQSSPSVIHSNVINQASISGRDKNKLMRPWAAFTAFEESTRYFLKDEKGLTKGKEWFVGRIVTLEHFVADSPSNNPFRLPKGSVWFQVTAVVVSYQGV | binds weakly
AD-atg11 YDL (protein, UniProt Q12527 1-1178) MADADEYSTAPTQQEITPLQTTATIINAISGECITTNVDFFVSLDKFKQFIARKWKIPPDQLLILLPYGNKLKPSMFKELLINRSFTLNDFYVYDRRLFSLVSKPTPTNLLTSKDSNPMNSPNSNDLTETLEYLIKNSHISQYQGSDTIMIKPMPSPLEDADVDLSRLNYHSVTSLLTTNLGWLSALEIDVHYFKSLIPDIIAHIKRIFDGLTVCSQYLKLYCFDVESLYNSNVQFLNQLVDNGMTSKWEKCFNDTLSKLTALEGDSLQKFINIESLLENEKSVKILNHSINGKLNKIKREIDENASFRDIITVNIDRLRQMFTPNESKFELEDQMAESFEVLVSEMRTRSRNVLDKEEEEFNSQEFLKSMNVMLEKDKKESVKTLFTISQALYSQIGELIDLKKSLQKHAVAILGNIAFTQMEILGIKRLLLNECNKDLELYKKYEVEFAQVEDLPLIYGLYLIEKARRLSWFQQILSFISNFNQDLELFKQNELRTRNKWVKNFGSIATVFCEAALSSSDFKRLNEYHSHTSPPNEDEEDENENSIANYRQDLVKVSQAIDNYMTQIKETDVSEPIIDLLSKTLFETKRFHIIYSNFKNNNNNSSNGNSISPEGSIALKSDDVVKGYKTRIKKLESLLHEFQYSDIGHWPQGVLNTHLKPFRGSATSINKKKFLGASVLLEPANISEVNIDSVSQANNHQIQELESNVDDLLHQLQLLKEENNRKSMQISEMGKKISDLEVEKTAYRETLTNLNQELARLTNEEQSHRTEIFTLNASFKKQLNDIISQDNEKIEKLTGDYDDVSKSRERLQMDLDESNKKHEQEVNLLKADIERLGKQIVTSEKSYAETNSSSMEKGEKFETIPLAEDPGRENQISAYTQTLQDRIFDIISTNIFILENIGLLLTFDNNNNIQIRRVKGLKKGTAQSNILDESTQMLDAHDNSLIKSPVFQKLKDEYELIKSVANGSEKDTQQSIFLGNITQLYDNKLYEVAVIRRFKDIETLAKKLTKENKIKRTLLERFQREKVTLRNFQIGDLALFLPTRENVNSVGSMSSSTSSLSSSFSSVDLSTPPPLDAMSIQSSPSVIHSNVINQASISGRDKNKLMRPWAAFTAFEESTRYFLKDEKGLTKGKEWFVGRIVTLEHFVADSPSNNPFRLPKGSVWFQVTAVVVSYQGV | binds
AD-atg11 DLL (protein, UniProt Q12527 1-1178) MADADEYSTAPTQQEITPLQTTATIINAISGECITTNVDFFVSLDKFKQFIARKWKIPPDQLLILLPYGNKLKPSMFKELLINRSFTLNDFYVYDRRLFSLVSKPTPTNLLTSKDSNPMNSPNSNDLTETLEYLIKNSHISQYQGSDTIMIKPMPSPLEDADVDLSRLNYHSVTSLLTTNLGWLSALEIDVHYFKSLIPDIIAHIKRIFDGLTVCSQYLKLYCFDVESLYNSNVQFLNQLVDNGMTSKWEKCFNDTLSKLTALEGDSLQKFINIESLLENEKSVKILNHSINGKLNKIKREIDENASFRDIITVNIDRLRQMFTPNESKFELEDQMAESFEVLVSEMRTRSRNVLDKEEEEFNSQEFLKSMNVMLEKDKKESVKTLFTISQALYSQIGELIDLKKSLQKHAVAILGNIAFTQMEILGIKRLLLNECNKDLELYKKYEVEFAQVEDLPLIYGLYLIEKYRRLSWFQQILSFISNFNQDLELFKQNELRTRNKWVKNFGSIATVFCEAALSSSDFKRANEYHSHTSPPNEDEEDENENSIANYRQDLVKVSQAIDNYMTQIKETDVSEPIIDLLSKTLFETKRFHIIYSNFKNNNNNSSNGNSISPEGSIALKSDDVVKGYKTRIKKLESLLHEFQYSDIGHWPQGVLNTHLKPFRGSATSINKKKFLGASVLLEPANISEVNIDSVSQANNHQIQELESNVDDLLHQLQLLKEENNRKSMQISEMGKKISDLEVEKTAYRETLTNLNQELARLTNEEQSHRTEIFTLNASFKKQLNDIISQDNEKIEKLTGDYDDVSKSRERLQMDLDESNKKHEQEVNLLKADIERLGKQIVTSEKSYAETNSSSMEKGEKFETIPLAEDPGRENQISAYTQTLQDRIFDIISTNIFILENIGLLLTFDNNNNIQIRRVKGLKKGTAQSNILDESTQMLDAHDNSLIKSPVFQKLKDEYELIKSVANGSEKDTQQSIFLGNITQLYDNKLYEVAVIRRFKDIETLAKKLTKENKIKRTLLERFQREKVTLRNFQIGDLALFLPTRENVNSVGSMSSSTSSLSSSFSSVDLSTPPPLDAMSIQSSPSVIHSNVINQASISGRDKNKLMRPWAAFTAFEESTRYFLKDEKGLTKGKEWFVGRIVTLEHFVADSPSNNPFRLPKGSVWFQVTAVVVSYQGV | binds
AD-atg11 DL (protein, UniProt Q12527 1-1178) MADADEYSTAPTQQEITPLQTTATIINAISGECITTNVDFFVSLDKFKQFIARKWKIPPDQLLILLPYGNKLKPSMFKELLINRSFTLNDFYVYDRRLFSLVSKPTPTNLLTSKDSNPMNSPNSNDLTETLEYLIKNSHISQYQGSDTIMIKPMPSPLEDADVDLSRLNYHSVTSLLTTNLGWLSALEIDVHYFKSLIPDIIAHIKRIFDGLTVCSQYLKLYCFDVESLYNSNVQFLNQLVDNGMTSKWEKCFNDTLSKLTALEGDSLQKFINIESLLENEKSVKILNHSINGKLNKIKREIDENASFRDIITVNIDRLRQMFTPNESKFELEDQMAESFEVLVSEMRTRSRNVLDKEEEEFNSQEFLKSMNVMLEKDKKESVKTLFTISQALYSQIGELIDLKKSLQKHAVAILGNIAFTQMEILGIKRLLLNECNKDLELYKKYEVEFAQVEDLPLIYGLYLIEKYRRLSWFQQILSFISNFNQDLELFKQNELRTRNKWVKNFGSIATVFCEAALSSSDFKRLNEYHSHTSPPNEDEEDENENSIANYRQDLVKVSQAIDNYMTQIKETDVSEPIIDLLSKTLFETKRFHIIYSNFKNNNNNSSNGNSISPEGSIALKSDDVVKGYKTRIKKLESLLHEFQYSDIGHWPQGVLNTHLKPFRGSATSINKKKFLGASVLLEPANISEVNIDSVSQANNHQIQELESNVDDLLHQLQLLKEENNRKSMQISEMGKKISDLEVEKTAYRETLTNLNQELARLTNEEQSHRTEIFTLNASFKKQLNDIISQDNEKIEKLTGDYDDVSKSRERLQMDLDESNKKHEQEVNLLKADIERLGKQIVTSEKSYAETNSSSMEKGEKFETIPLAEDPGRENQISAYTQTLQDRIFDIISTNIFILENIGLLLTFDNNNNIQIRRVKGLKKGTAQSNILDESTQMLDAHDNSLIKSPVFQKLKDEYELIKSVANGSEKDTQQSIFLGNITQLYDNKLYEVAVIRRFKDIETLAKKLTKENKIKRTLLERFQREKVTLRNFQIGDLALFLPTRENVNSVGSMSSSTSSLSSSFSSVDLSTPPPLDAMSIQSSPSVIHSNVINQASISGRDKNKLMRPWAAFTAFEESTRYFLKDEKGLTKGKEWFVGRIVTLEHFVADSPSNNPFRLPKGSVWFQVTAVVVSYQGV | binds
